Laboratory results as given in the supplement of paper PMC10369915.
Some of the results follow. No stated cut-off is given here; in the data, active = 3.2 or more and inactive = the rest. Most of these values are background signal.

B1: NBN_Y679_Y679H (peptide)
chain: GINDDHGQLKN
B2: NARS2_Y138_E137D (peptide)
chain: RHPLDYLRQYP
B3: NDST1_Y711 (peptide)
chain: PADRAYSWYQH
B4: NDRG2_Y47 (peptide)
chain: SVETPYGSVTF
B5: NANS_Y188 (peptide)
chain: QCTSAYPLQPE
B6: MYOM2_Y317_V321L (peptide)
chain: PRAEWYRDDLL
B7: NBEAL2_Y1835_E1833K (peptide)
chain: SSAKTYSRMRL
B8: MYOF_Y1705 (peptide)
chain: YGGRDYSLDEF
B9: MYOM3_Y343_M344T (peptide)
chain: EDEGLYTVRVP
B10: MYOM2_Y1024_L1022F (peptide)
chain: KSEFAYEIFDK
B11: NCAPD2_Y6_F8S (peptide)
chain: MAPQMYESHLP
B12: NCF2_Y125 (peptide)
chain: ACEVLYNIAFM
B13: MYOM2_Y871 (peptide)
chain: TTANRYLKVSD
B14: NAXD_Y85_G81S (peptide)
chain: GSCQEYTGAPY
B15: NARS2_Y138_E137D_YF (peptide)
chain: RHPLDYLRQFP
B16: NCKIPSD_Y660_Y660S (peptide)
chain: KLRMESLSLMH
B17: MYOM2_Y871_N869S (peptide)
chain: TTASRYLKVSD
B18: NAT1_Y208_T207I (peptide)
chain: ESMNIYLQTSP

What follows are binders tested against SHP2 C-SH2 domain E139D (assay: enrichment score (SH2-bound / input frequency) (ratio); bacterial display of known human phosphotyrosine sites (pTyr-Var adds point mutants) read by sequencing; higher = stronger binding; tyrosines were phosphorylated by kinases first). Details: peptide library: pTyr-Var.
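Further: displayed peptides selected on beads carrying the immobilized SH2 domain, with library peptides lacking any tyrosine serving as negative controls.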

Enrichment score, inactive:
B1 0.451
B2 1.57
B3 0.969
B4 0.92
B5 0.704
B6 0.807
B7 0.563
B8 0.96
B9 0.855
B10 0.931
B11 0.817
B12 1.15
B13 0.519
B14 0.576
B15 1.12
B16 1.43
B17 0.521
B18 0.779

The binders below were run against SHP2 C-SH2 domain wild-type in the same assay as above. Details: peptide library: pTyr-Var.

Enrichment score, inactive:
B1 0.513
B2 1.52
B3 1.03
B4 0.83
B5 0.554
B6 0.868
B7 0.553
B8 0.81
B9 0.664
B10 0.705
B11 0.67
B12 1.62
B13 0.381
B14 0.771
B15 0.831
B16 1
B17 0.318
B18 0.942

Each binder was assayed against SHP2 N-SH2 domain L43F in the same assay as above. Details: peptide library: pTyr-Var.

Enrichment score, inactive:
B1 0.595
B2 1.62
B3 0.835
B4 0.87
B5 0.502
B6 0.693
B7 0.455
B8 0.829
B9 0.748
B10 0.782
B11 0.789
B12 1.39
B13 0.444
B14 0.667
B15 0.879
B16 1
B17 0.547
B18 0.726

These binders were tested against SHP2 N-SH2 domain T42A in the same assay as above. Details: peptide library: pTyr-Var.

Enrichment score, inactive:
B1 0.4
B2 1.49
B3 0.778
B4 0.841
B5 0.646
B6 0.646
B7 0.523
B8 0.632
B9 0.71
B10 0.693
B11 0.729
B12 0.967
B13 0.371
B14 0.611
B15 0.871
B16 1.03
B17 0.54
B18 0.821

Each binder was assayed against SHP2 N-SH2 domain T52S in the same assay as above. Details: peptide library: pTyr-Var.

Enrichment score, inactive:
B1 0.51
B2 1.63
B3 0.831
B4 0.761
B5 0.638
B6 0.726
B7 0.51
B8 0.75
B9 0.564
B10 0.804
B11 0.886
B12 0.891
B13 0.308
B14 0.69
B15 0.953
B16 1.18
B17 0.654
B18 0.762

What follows are binders tested against SHP2 N-SH2 domain wild-type in the same assay as above. Details: peptide library: pTyr-Var.

Enrichment score, inactive:
B1 0.553
B2 1.29
B3 0.71
B4 0.753
B5 0.735
B6 0.897
B7 0.435
B8 0.755
B9 0.582
B10 0.757
B11 1.04
B12 1.47
B13 0.503
B14 0.816
B15 0.923
B16 1.15
B17 0.617
B18 0.872
